# Assay results: PubChem BioAssay AID602310 (National Center for Advancing Translational Sciences (NCATS), 2012)
# Out of some 410,000 compounds screened, about 310 (0.076%) were called active. The inconclusive results got no clear call from the source; some entries with a clear call stand among them for comparison. Calls come from the whole dose curve; as a rule, active = well fitted curve in the direction sought with a large enough effect; inconclusive = small, poorly fitted or top-dose-only effect; inactive = flat fitted curve, though single readings scatter. A potency beside an inconclusive call is a rough fit, not a confirmed value.
# Target: DNA dC->dU-editing enzyme APOBEC-3G (Homo sapiens) (UniProt Q9HC16)
# Sequence of UniProt Q9HC16 (Q9HC16 whole entry, looked up): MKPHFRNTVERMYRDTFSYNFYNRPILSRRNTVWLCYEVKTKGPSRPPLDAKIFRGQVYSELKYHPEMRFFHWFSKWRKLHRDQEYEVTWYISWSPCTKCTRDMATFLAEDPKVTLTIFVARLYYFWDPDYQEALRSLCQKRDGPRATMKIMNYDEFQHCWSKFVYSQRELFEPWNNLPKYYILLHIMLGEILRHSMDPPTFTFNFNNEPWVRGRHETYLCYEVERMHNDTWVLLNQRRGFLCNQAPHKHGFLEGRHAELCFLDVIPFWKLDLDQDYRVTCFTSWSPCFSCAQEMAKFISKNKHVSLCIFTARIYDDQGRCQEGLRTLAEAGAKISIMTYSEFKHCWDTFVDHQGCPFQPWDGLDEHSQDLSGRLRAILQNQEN
# Test: qHTS for Inhibitors of Vif-A3G Interactions: qHTS; note: nearly all actives have a fitted effect of over 60% in size
# Conditions: HeLa A3G-eYFP + Vif (tagged APOBEC3G with the HIV-1 protein that degrades it), YFP fluorescence, overnight; series mostly up to 46.1 µM
# Outline: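 Read-out is eYFP fluorescence (Ex 488/Em 500-530) from Vif-expressing HeLa A3G-eYFP cells; more signal means A3G escaped Vif-mediated degradation. Cells plated overnight, compound pinned in, incubated overnight at 37 deg C.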
# Potency is the fitted concentration of half-maximal effect; tags give direction and shape of the fitted curve.
row,Compound,Potency
1,O=C(COC(=O)c1ccccc1C(=O)c1ccc(Cl)c([N+](=O)[O-])c1)NC1CCCCCC1,"inconclusive: 20 µM [inhibitor, single point]"
2,O=C1c2cccc3c([N+](=O)[O-])c(O)cc(c23)C(=O)N1Nc1ccccc1,"inconclusive: 35.5 µM [inhibitor, single point]"
3,Cc1ccc(/C(O)=C2/C(=O)C(=O)N(c3ccccn3)C2c2ccc(F)cc2)cc1 (stereo not drawn),"inconclusive: 3.16 µM [inhibitor, single point]"
4,COc1ccc(/C=C/c2ccnc3ccccc23)cc1,"inconclusive: 2.82 µM [inhibitor, full curve, poor fit]"
5,O=C(O)c1cccc(Cn2c(Cl)c(/C=N/NC(=O)c3ccccc3)sc2=O)c1,inactive
6,CCOC(=O)N1CCN(c2c(NCc3cccs3)c(=O)c2=O)CC1,"inconclusive: 15.8 µM [inhibitor, single point]"
7,Cc1ccc(-c2nc3cc(Cl)ccc3o2)cc1NC(=O)COc1ccccc1C,inactive
8,COc1ccccc1/C=N/NC(=O)c1cc2c(OC)c(OC)ccc2[nH]1,"inconclusive: 2.82 µM [inhibitor, full curve]"
9,Cc1cc(C)c(NC(=O)c2cc3c(=O)n4ccccc4nc3n2C)c(C)c1,"inconclusive: 12.6 µM [inhibitor, partial curve]"
10,COc1ccc(/C=N/OC(=O)Nc2ccccc2OC)cc1,"inconclusive: 2.51 µM [inhibitor, partial curve, poor fit]"
11,O=c1c2ccccc2sn1-c1ccccc1,inactive
12,Cc1cc(C)c[n+](-c2nc3ccccc3nc2[N-]S(=O)(=O)c2ccc(Br)s2)c1,"inconclusive: 22.4 µM [inhibitor, partial curve, poor fit]"
13,Cc1cccc(C)c1-n1cccc1/C=C1\SC(=S)N(c2cccc(C(=O)O)c2)C1=O,inactive
14,Cc1ccc(CSc2nc3ccccc3cc2C=O)cc1,"inconclusive: 2.51 µM [inhibitor, partial curve, poor fit]"
15,Cc1c(NC(=O)/C=C/c2cn(-c3ccccc3)nc2-c2ccc(F)cc2)c(=O)n(-c2ccccc2)n1C,inactive
16,CCC(=Nc1ccccc1O)C1=C(O)CC(c2ccccc2)CC1=O (stereo not drawn),"inconclusive: 17.8 µM [inhibitor, partial curve, poor fit]"
17,N#Cc1c(-c2ccccc2)c(-c2ccccc2)nn(CC(=O)NNC(=O)Nc2ccccc2)c1=O,"inconclusive: 2.51 µM [inhibitor, full curve, poor fit]"
18,NS(=O)(=O)c1ccc(-c2cccc(/C=C3\SC(=O)NC3=O)c2)cc1,"inconclusive: 25.1 µM [inhibitor, single point]"
